Data as given in a collection of fitness landscapes (doi:10.1126/science.1257360).
Some of the results follow.

B1: PhoQ; a variant is named by its letters at X, in order, P23837 (parent)
chain: MKKLLRLFFPLSLRVRFLLATAAVVLVLSLAYGMVALIGYSVSFDKTTFRLLRGESNLFYTLAKWENNKLHVELPENIDKQSPTMTLIYDENGQLLWAQRDVPWLMKMIQPDWLKSNGFHEIEADVNDTSLLLSGDHSIQQQLQEVREDDDDAEMTHSVAVNVYPATSRMPKLTIVVVDTIPVELKSSYMVWSWFIYVLSANLLLVIPLLWVAAWWSLRPIEALAKEVRELEEHNRELLNPATTRELTSLVRNLNRLLKSERERYDKYRTTLTDLTHSLKTPLXXLQXXLRSLRSEKMSVSDAEPVMLEQISRISQQIGYYLHRASMRGGTLLSRELHPVAPLLDNLTSALNKVYQRKGVNISLDISPEISFVGEQNDFVEVMGNVLDNACKYCLEFVEISARQTDEHLYIVVEDDGPGIPLSKREVIFDRGQRVDTLRPGQGVGLAVAREITEQYEGKIVAGESMLGGARMEVIFGRQHSAPKDE

Variants of: B1
Assay: enrichment ratio after two sorts for PhoP signalling (ratio (wild type AVST 3.29)); higher = more functional
Details: with PhoP (E. coli)

Variant | enrichment ratio
VTWF | ≤ 0.25
MQSD | ≤ 0.25
GHFK | ≤ 0.25
YYVW | ≤ 0.25
WDEC | ≤ 0.25
YVLV | ≤ 0.25
DMNP | ≤ 0.25
NRSF | ≤ 0.25
THPH | ≤ 0.25
GYNI | ≤ 0.25
TQTQ | 4.86
EFTW | ≤ 0.25
TVEM | ≤ 0.25
DWSS | ≤ 0.25
MKII | ≤ 0.25
KLTN | ≤ 0.25
RWPV | ≤ 0.25
HCPF | ≤ 0.25
LKKM | ≤ 0.25
YNNQ | ≤ 0.25
LMTG | ≤ 0.25
IFVQ | ≤ 0.25
QSVD | ≤ 0.25
FTSW | ≤ 0.25
ASLS | 10.2
SKKS | ≤ 0.25

Variant | enrichment ratio
SARM | ≤ 0.25
DIPQ | ≤ 0.25
FFVT | ≤ 0.25
GSAK | 1.55
PMSP | ≤ 0.25
GHPI | ≤ 0.25
LTIG | ≤ 0.25
QVYY | ≤ 0.25
NNWL | ≤ 0.25
TESD | 1.4
VERV | ≤ 0.25
DLVI | ≤ 0.25
HMPC | ≤ 0.25
MPHH | ≤ 0.25
HQSN | ≤ 0.25
THSM | 7.82
EEAV | ≤ 0.25
FRIG | ≤ 0.25
LGLY | ≤ 0.25
AQVR | ≤ 0.25
PQSM | ≤ 0.25
IIRP | ≤ 0.25
GFFW | ≤ 0.25
FHKA | ≤ 0.25
QGRT | ≤ 0.25
TFNK | ≤ 0.25

Variant | enrichment ratio
HPTY | ≤ 0.25
VCNW | ≤ 0.25
FMQK | ≤ 0.25
PWAH | ≤ 0.25
FMFI | ≤ 0.25
FHVN | ≤ 0.25
AEDF | ≤ 0.25
WYWR | ≤ 0.25
YCYR | ≤ 0.25
LKWT | ≤ 0.25
TCDF | ≤ 0.25
TSAY | 11.6
KISC | ≤ 0.25
ATGL | 6.2
EFTQ | ≤ 0.25
LIEM | ≤ 0.25
NLEH | ≤ 0.25
HNGR | ≤ 0.25
QRMH | ≤ 0.25
FWTG | ≤ 0.25
ESRR | ≤ 0.25
KYRG | ≤ 0.25
EYIW | ≤ 0.25
HQGA | ≤ 0.25
PVTV | ≤ 0.25
MDHR | ≤ 0.25

Variant | enrichment ratio
PDMI | ≤ 0.25
PMSI | ≤ 0.25
YSRY | ≤ 0.25
PRYP | ≤ 0.25
LLDE | ≤ 0.25
PNFL | ≤ 0.25
YAQT | ≤ 0.25
WRWH | ≤ 0.25
HTCH | ≤ 0.25
PSKW | ≤ 0.25
DAAP | ≤ 0.25
QMSD | ≤ 0.25
QGDM | 27.5
HKAI | ≤ 0.25
FDGR | ≤ 0.25
EMRF | ≤ 0.25
SCGH | 6.81
MDMI | 6.22
WMCL | ≤ 0.25
VTMG | 3.95
WRHI | ≤ 0.25
SHMV | ≤ 0.25
GHRG | ≤ 0.25
YMDD | ≤ 0.25
NEYS | ≤ 0.25
PVNC | ≤ 0.25

Variant | enrichment ratio
WGSK | ≤ 0.25
LFCT | ≤ 0.25
IISY | 1.46
SLYT | ≤ 0.25
GRWN | ≤ 0.25
GEPD | ≤ 0.25
FANF | ≤ 0.25
MIKR | ≤ 0.25
ALYD | ≤ 0.25
TVQH | 4.75
EWLC | ≤ 0.25
RMHN | ≤ 0.25
PFMD | ≤ 0.25
QRQC | ≤ 0.25
KVDH | ≤ 0.25
PRSY | ≤ 0.25
WMTY | ≤ 0.25
HAHK | ≤ 0.25
ETMV | ≤ 0.25
LKHM | ≤ 0.25
QRCA | ≤ 0.25
NHVG | ≤ 0.25
GKTD | ≤ 0.25
DHIS | ≤ 0.25
NCWL | ≤ 0.25
PDGC | ≤ 0.25

Variant | enrichment ratio
GKAT | ≤ 0.25
YNAI | ≤ 0.25
WLAC | ≤ 0.25
VRGY | ≤ 0.25
EIGM | ≤ 0.25
YMVV | ≤ 0.25
IRCC | ≤ 0.25
SMWV | ≤ 0.25
WLVC | ≤ 0.25
VHAR | ≤ 0.25
SYMR | ≤ 0.25
KHTC | ≤ 0.25
CWYY | ≤ 0.25
QMDF | ≤ 0.25
RWSK | ≤ 0.25
NDTQ | ≤ 0.25
NPRT | ≤ 0.25
ILFH | ≤ 0.25
QDMG | ≤ 0.25
MRDN | ≤ 0.25
QSYT | 8.7
KRYV | ≤ 0.25
PIDQ | ≤ 0.25
